Data taken from PubChem BioAssay AID1159614 (National Center for Advancing Translational Sciences (NCATS), 2016).
Hit rate of the full screen: of about 45,000 compounds, about 65 (0.1%) were called active. The call rests on the fitted dose curve; in most records, active means well fitted activation curve with a large enough effect; inconclusive means small, poorly fitted or top-dose-only effect; inactive means no such curve, though single readings can be large or run the other way. The list shows a part of the results.

The compounds below were run against Galactocerebrosidase (Homo sapiens) (UniProt P54803) (assay: A Novel Cell-Based Assay to Identify Small Molecules for B -Galactocerebrosidase). Details: 145M-Twi-hGALC-G270D cells (Twitcher mouse brain line with human GALC G270D), HMU-beta-Gal fluorescence, 48 h; series mostly up to 57.5 µM; activation: at the top concentration.
UniProt P54803, sequence (P54803 whole entry, looked up): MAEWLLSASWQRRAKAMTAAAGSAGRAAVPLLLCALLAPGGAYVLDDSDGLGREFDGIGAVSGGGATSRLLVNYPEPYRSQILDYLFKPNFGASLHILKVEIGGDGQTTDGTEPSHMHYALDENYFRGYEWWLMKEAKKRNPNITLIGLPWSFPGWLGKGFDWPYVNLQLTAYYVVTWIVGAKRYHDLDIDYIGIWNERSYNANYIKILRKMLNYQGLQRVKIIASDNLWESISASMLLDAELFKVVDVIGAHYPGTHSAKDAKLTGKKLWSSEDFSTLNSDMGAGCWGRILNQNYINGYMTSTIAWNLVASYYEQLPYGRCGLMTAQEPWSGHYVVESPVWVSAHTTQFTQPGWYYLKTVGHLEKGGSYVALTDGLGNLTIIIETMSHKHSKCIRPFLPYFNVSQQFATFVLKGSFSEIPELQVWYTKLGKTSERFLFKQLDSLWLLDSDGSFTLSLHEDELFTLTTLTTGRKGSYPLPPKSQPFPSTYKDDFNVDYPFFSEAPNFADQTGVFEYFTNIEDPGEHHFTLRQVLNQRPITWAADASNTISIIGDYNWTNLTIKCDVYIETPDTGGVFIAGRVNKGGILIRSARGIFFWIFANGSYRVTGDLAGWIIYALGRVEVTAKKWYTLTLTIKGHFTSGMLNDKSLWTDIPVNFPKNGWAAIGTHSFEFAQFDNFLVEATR
In short: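 Fluorogenic HMU-b-Gal hydrolysis (0.1 mM final, pH 5.2 citrate-phosphate with 1 mg/mL sodium taurocholate; carbonate stop buffer) measures mutant GALC activity after compound treatment of live 145M-Twi Twitcher brain cells stably carrying human GALC-G270D, with wild-type GALC line alongside; activation sought.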
Further: 0% is about no effect; nearly all actives have a fitted effect of over 65% in size.

activation, inactive:
CC1=C(c2ccc(C)c(C)c2)S(=O)(=O)N=C1N1CCN(c2cccc(C(F)(F)F)c2)CC1 -0.593%, CCOc1ccc(-n2c(=O)c3c4c(sc3n(Cc3cccc(Cl)c3)c2=O)CCCC4)cc1 -10%, Cc1ccc(NC(=O)Cn2c(=O)n(-c3ccc(CC(=O)NCC4CCCO4)cc3)c(=O)c3ccccc32)cc1 (stereo unspecified) -4.78%, CCn1cc(C(=O)N2CCN(c3ccccc3OC)CC2)c(=O)c2cc(S(=O)(=O)N3CCCCC3)ccc21 -6.51%, COc1ccc(-c2nn(-c3ccccc3)cc2C(=O)Nc2ccccc2OC)cc1 -7%, Cc1cccc(C(=O)Nc2ccccc2-c2nc(-c3ccccc3)no2)c1 -1.85%, CC(C)CN(c1ccccc1)S(=O)(=O)c1nnc(NC(=O)c2ccco2)s1 -37.5%, CCOc1ccc(Sc2cc(C(=O)NCCc3ccc(OC)c(OC)c3)c3ccccc3n2)cc1 -14.3%, CCn1c(=O)c2cc(C(=O)N(C)c3cc(C)ccc3C)sc2c2ccccc21 -27.6%, O=C(O)c1cccc(NC(=O)c2cccc(S(=O)(=O)Nc3cccc(C(=O)O)c3)c2)c1 -14.7%, CC(C)c1ccc(Nc2nc3ccc(C(=O)c4ccccc4)cc3n3cnnc23)cc1 -28.1%, Cn1cc(C(=O)NCc2ccc(F)cc2)c(=O)c2cc(S(=O)(=O)N3CCCCC3)ccc21 -12.6%, O=C(CCSCc1ccccc1F)N1CCN(c2ccc(F)cc2)CC1 -8.72%, COc1ccc(NC(=O)N2CCc3c(sc4c3CCCC4)C2c2ccc(F)cc2)cc1 (stereo unspecified) -9.3%, COc1cc(OC)c(NC(=O)c2oc3ccc4c(c3c2C)C(=O)CC(C)(C)O4)cc1Cl -11.4%, COc1ccc(NC(=O)c2ccc3snnc3c2)cc1OC -15.2%, COc1cc(OC)cc(-n2c(=O)[nH]c3cc(C(=O)NCCc4ccc(C)cc4)ccc3c2=O)c1 -17.2%, CN(C)C(=O)c1ccc(S(=O)(=O)NCc2ccccc2Cl)s1 -12.2%, CCN(C(=O)c1sc2nc3n(c(=O)c2c1C)CCCCC3)c1ccccc1F -13.1%, CCc1ccc(CNC(=O)c2cc3c(=O)oc4ccc(C)cc4c3s2)cc1 -2.24%, Cc1ccc(NC(=O)Nc2nnc(N3CCCCC3)s2)c(C)c1 -3.5%, COc1ccc(-n2cc3c(c2-c2cccc(Br)c2)c(=O)n(C)c(=O)n3C)cc1OC -15.4%, COc1cccc(NC(=O)Cn2c(=O)n(Cc3ccccc3)c(=O)c3c4c(sc32)CN(C(C)=O)CC4)c1 -11.9%, COc1ccc(-c2cc(C(F)(F)F)nc(SCC(=O)NCc3ccc(F)cc3)n2)cc1 -12.3%, Cc1cc(C)cc(C(=O)Nc2ccc(-c3cn4cccnc4n3)cc2)c1 10.2%, COC(=O)c1ccccc1NC(=O)c1nc(SCc2ccccc2C)ncc1Cl -16.3%, COc1ccc(S(=O)(=O)NC2(C(F)(F)F)NC(=O)N(CCc3ccccc3)C2=O)cc1 (stereo unspecified) 6.83%, CCCCCSc1nnc2c(n1)OC(c1ccc(C)s1)N(C(C)=O)c1ccccc1-2 (stereo unspecified) -31.5%, Cc1c(Cl)cccc1N1CC(c2nc3ccccc3n2Cc2ccccc2F)CC1=O (stereo unspecified) -14.9%, Oc1ccccc1-c1nc(/C=C/c2ccc(F)cc2)no1 -20%, Cc1cccc(N2CCN(C(=O)Nc3ccc(F)cc3)CC2C)c1 (stereo unspecified) -23.7%, Cc1ccccc1NC(=O)Nc1nnc(N(C)Cc2ccccc2)s1 -9.63%, COc1ccccc1NC(=O)CN1C(=O)C(c2ccc(F)cc2)=NC1(C)C -8.87%, Cc1c(CNCCCc2ccccc2)c(C(=O)O)c(C)n1Cc1ccc(Cl)cc1 -7.11%, O=c1c2oc3ccccc3c2n(Cc2ccccc2F)c(=O)n1Cc1ccco1 -12.7%, CCOC(=O)NNc1nncc2ccccc12 -35.9%, Cc1cc(=O)[nH]c2nnc(SCc3cccc(F)c3)n12 -35.1%, Cc1ccc(Cn2cc(CCC(=O)NC3CCCCC3)c3ccccc32)cc1 0.741%, CCOc1ccc(-c2ccc(NS(=O)(=O)c3cc(C)ccc3OC)cc2)nn1 -2.47%, Cc1ccc(N2CCN(C(=O)c3nn(C)c4c3CS(=O)(=O)c3ccccc3-4)CC2C)cc1 (stereo unspecified) -7.21%, Cc1cccc(NC(=O)Cn2c(=O)n(Cc3ccc4c(c3)OCO4)c(=O)c3ccccc32)c1 -2.08%, CCS(=O)(=O)c1c(Nc2ccc(F)c(Cl)c2)sc(C(=O)c2ccccc2)c1N -14.2%, COc1ccc(NC(=O)Cn2c(=O)oc3cc(S(=O)(=O)NC(C)C)ccc32)cc1OC -7.88%, CCOc1ccc(C(=O)c2cn(CC(=O)Nc3cc(OC)cc(OC)c3)c3ccc(F)cc3c2=O)cc1 10.7%, Cc1cccc(NC(=O)Cn2c(=O)n(Cc3ccc(C(=O)NCc4ccc5c(c4)OCO5)cc3)c(=O)c3ccccc32)c1 -17.7%, Cc1ccc(NC(=O)CSc2nc(-c3ccc(F)cc3)cc(C(F)(F)F)c2C#N)cc1 -13.5%, O=C(CCn1c(=O)c2cccn2c2ccc(F)cc21)NCc1ccccc1F -13.6%, CCNC(=O)CC1C(=O)N(c2ccccc2)C(=O)N1Cc1ccc(F)cc1 (stereo unspecified) 0.236%, CCCSCCCNC(=O)C1CCN(C(=O)c2cc3sccc3n2C)CC1 -5.49%, COc1ccccc1N1CCN(S(=O)(=O)c2ccc3c(c2)oc(=O)n3C)CC1 -15.4%, Cc1nnc(N2CCC(C(=O)NC(C)C)CC2)c2nn(-c3ccc(Cl)cc3)c(C)c12 -5.31%, Cc1ccccc1Cn1c(CCCNC(=O)C2CCCCC2)nc2ccccc21 1.3%, Cc1cccc(OCc2nnc(SCC(=O)Nc3ccc(C)cc3C)o2)c1 -3.92%, Cc1ccccc1Cn1c(SCc2ccc(C(=O)NCc3cccs3)cc2)nc2ccncc21 -16.1%, COc1ccc(S(=O)(=O)N(Cc2nc(-c3cccc(C)c3)no2)C2CCCCC2)cc1 -19.3%, Cc1c2cnn(CC(=O)NCc3ccccc3)c(=O)c2c(C)n1Cc1cccc(Cl)c1 -20.5%, CC(=O)c1cccc(NC(=O)Cn2c(SCC(=O)Nc3ccc(F)cc3)nc3ccccc32)c1 -24.8%, CCOc1ccc(-n2c(C)nc3c(cnn3-c3ccc(C)cc3)c2=O)cc1 -18.6%, CCC1CCCCN1S(=O)(=O)c1ccc(NC(=O)c2cc(=O)c3ccccc3o2)cc1 (stereo unspecified) -13.2%, CCN(CCCNC(=O)c1cc2c(=O)[nH]c3ccccc3c2s1)c1ccccc1 -20.4%, CCCCOc1ccc(C2c3c(-c4ccccc4O)n[nH]c3C(=O)N2Cc2ccncc2)cc1OC (stereo unspecified) -24.4%, O=C(Nc1nc(-c2ccc(Br)cc2)ns1)c1ccc(F)cc1 -36.2%, O=S(=O)(c1ccc(-n2cnnn2)cc1)N1CCN(c2ccccc2F)CC1 -9.81%, COc1ccc(CCN2C(=O)N(c3ccc(F)cc3)C(=O)C2CC(=O)Nc2ccccc2)cc1 (stereo unspecified) -11.5%, N#C/C(=C\c1ccc(Cl)cc1)C(=O)NCC1CCCO1 (stereo unspecified) 10.1%, Cn1cc(S(=O)(=O)c2ccccc2)c(=O)c2cc(F)c(N3CCOCC3)cc21 -14.5%, COc1ccc(-c2c(C#N)c(SCC(=O)Nc3ccccc3C)nc(C)c2C(=O)Nc2ccccc2)cc1OC 4.34%, O=C(CN1CCN(Cc2ccccc2Cl)C1=O)NCc1ccccc1Cl -14.5%, COCCCNC(=O)CSc1nc(-c2cccc(F)c2)[nH]c1-c1ccccc1 -12.7%, COc1cccc(CNCCSc2nnnn2C)c1OCc1ccc(Cl)cc1Cl -4.45%, COc1ccccc1CNC(=O)Cn1c(=O)oc2cc(S(=O)(=O)N3CCC(C)CC3)ccc21 -12.9%, COc1ccccc1NC(=O)CSc1ccc(-c2sc(C)nc2C)nn1 -13.7%, Cc1cccc(-c2nc(CCNC(=O)Cc3ccc(F)cc3)cs2)c1 -8.98%, CCC(Nc1ccc(-c2nc(-c3ccco3)no2)cc1[N+](=O)[O-])c1ccccc1 (stereo unspecified) -20.6%, CCc1cnc2c(c1SCC(=O)Nc1ccc(Cl)cc1)c(=O)n(C)c(=O)n2C -12%, CC(COc1ccccc1)NC(C)C(O)c1ccc(O)cc1 (stereo unspecified) -16.7%, CCOc1ccc(NC(=O)Cc2coc3ccc(C)cc23)cc1 -3.31%, COc1ccc(-c2cc(C(F)F)n3ncc(C(=O)Nc4cc(OC)ccc4OC)c3n2)cc1 -5.96%, Cc1cccn2cc(-c3cccc(NS(=O)(=O)c4ccc(Cl)c(Cl)c4)c3)nc12 -26.8%, CCc1ccc2occ(CC(=O)Nc3c(C(=O)Nc4ccc(OC)cc4)oc4ccccc34)c2c1 -19.2%, O=C(NCc1ccccc1)c1nnc(Cc2cccc(F)c2)o1 -15.6%, O=C(NCC(c1ccc2c(c1)OCO2)N1CCOCC1)c1ccccc1F (stereo unspecified) 2.44%, CC(CNC(=O)Cn1ccc2cc(S(=O)(=O)N3CCCCC3)ccc21)c1ccccc1 (stereo unspecified) 7.03%, CC(C)(C)c1ccc(C(O)CCCN2CCC(C(O)(c3ccccc3)c3ccccc3)CC2)cc1 (stereo unspecified) -9.93%, COc1ccc(C2c3cccn3CCN2S(=O)(=O)c2ccccc2[N+](=O)[O-])cc1OC (stereo unspecified) -19.1%, CCOc1ccc(CCNC(=O)C2CCN(C(=O)N3CC(CC)Oc4ccc(C)cc43)CC2)cc1 (stereo unspecified) -39.8%, Cc1ccc2nc(Cl)c3cc(C(=O)N(C)C4CCCCC4)sc3c2c1 -5.27%, Cc1cc2nn(-c3ccc(F)cc3)nc2cc1NC(=O)c1ccc(OC(C)C)cc1 -11.1%, COc1cccc(Cn2c(=O)n(-c3cccc(Cl)c3C)c(=O)c3c4c(sc32)CN(C(C)=O)CC4)c1 0.583%, Cc1ccc(NC(=O)CSc2nc3ccc(NC(=O)c4cccs4)cc3s2)c(C)c1 -30.5%, CCOC(=O)c1c(C)oc2nc(C)nc(NCC3CCN(Cc4cccc(C)c4)CC3)c12 -23.9%, CCn1c(CNC(=O)c2ccc(OC)cc2)nnc1SCC(=O)Nc1cccc(C)c1C -9.1%, Cc1c(C(=O)N(C)C)sc2c1c(=O)n(-c1ccc(F)cc1)c(=O)n2Cc1cc(=O)n2ccccc2n1 -10.6%, Nc1c(C(=O)Nc2ccc(Cl)c(C(F)(F)F)c2)sc2nc(-c3ccncc3)ccc12 -21.9%, CCN(CC)S(=O)(=O)c1ccc2c(c1)c(=O)c(C(=O)NCc1ccc(Cl)cc1)cn2C -12%, COc1ccc(CC(=O)NCc2ccc3c(c2)CCN3C(C)=O)cc1OC -13.3%
